Data reported in publication PMC4336329 (PLoS ONE, 2015).
Hit rate of the full screen: of about 310,000 compounds, about 14,000 (4.5%) showed an effect of 50% or more. Effects have a minus sign here. The list shows a part of the results.

biological target: human ether-à-go-go-related gene (hERG) potassium channel (human, UniProt Q12809); assay: primary screen, population patch clamp on CHO cells stably expressing hERG
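Also: peak tail current of the secondary pulse compared with the same well before compound.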

Chain of human ether-à-go-go-related gene (hERG) potassium channel (Q12809 whole entry, looked up): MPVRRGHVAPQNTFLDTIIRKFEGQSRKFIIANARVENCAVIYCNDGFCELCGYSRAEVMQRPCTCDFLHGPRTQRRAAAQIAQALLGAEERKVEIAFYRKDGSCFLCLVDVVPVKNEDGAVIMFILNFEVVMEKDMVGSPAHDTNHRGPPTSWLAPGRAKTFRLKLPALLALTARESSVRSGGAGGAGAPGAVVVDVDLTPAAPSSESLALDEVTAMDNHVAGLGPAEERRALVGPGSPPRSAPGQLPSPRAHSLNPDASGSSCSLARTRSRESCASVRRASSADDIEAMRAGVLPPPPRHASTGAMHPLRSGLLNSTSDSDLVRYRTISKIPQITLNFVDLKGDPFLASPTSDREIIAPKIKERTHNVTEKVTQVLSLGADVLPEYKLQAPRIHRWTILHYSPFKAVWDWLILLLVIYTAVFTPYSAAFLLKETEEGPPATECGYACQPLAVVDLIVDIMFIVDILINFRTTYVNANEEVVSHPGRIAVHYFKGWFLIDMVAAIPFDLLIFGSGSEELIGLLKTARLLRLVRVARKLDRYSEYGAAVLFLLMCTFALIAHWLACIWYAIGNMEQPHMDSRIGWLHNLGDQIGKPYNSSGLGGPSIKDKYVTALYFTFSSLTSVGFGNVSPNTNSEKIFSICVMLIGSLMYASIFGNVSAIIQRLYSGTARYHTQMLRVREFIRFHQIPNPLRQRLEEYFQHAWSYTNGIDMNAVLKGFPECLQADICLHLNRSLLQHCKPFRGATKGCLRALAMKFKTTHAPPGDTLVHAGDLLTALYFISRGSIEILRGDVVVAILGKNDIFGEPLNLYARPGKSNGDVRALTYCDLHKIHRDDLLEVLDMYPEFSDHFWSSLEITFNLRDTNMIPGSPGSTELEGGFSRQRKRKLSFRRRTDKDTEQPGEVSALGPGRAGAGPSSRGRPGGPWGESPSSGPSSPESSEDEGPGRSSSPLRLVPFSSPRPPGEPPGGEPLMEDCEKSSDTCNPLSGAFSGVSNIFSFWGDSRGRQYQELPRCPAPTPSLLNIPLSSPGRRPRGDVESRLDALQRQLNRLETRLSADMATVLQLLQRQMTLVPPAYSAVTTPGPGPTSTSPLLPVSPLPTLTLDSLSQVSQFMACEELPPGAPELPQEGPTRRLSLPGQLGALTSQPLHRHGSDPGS

Point of comparison: `CC(C)CNP(=S)(c1ccccc1)C(C)(C)C` (stereo not shown), “hERG current change (%, negative = inhibition) at 10uM” value -3.31%. Against it:
- Cc1ccc(N(CC(=O)Nc2cc(C)cc(C)c2)S(=O)(=O)c2cccc3nonc23)cc1 — lower, -6.51%
- CCC1=Nc2cc(C(=O)NCCCOC(C)C)ccc2Sc2ccccc21 — lower, -13.3%
- CCc1ccccc1NC(=O)CCN1C(=O)C2CC=CCC2C1=O (stereo not shown) — higher, 18.3%
- CO[C@H]1[C@@H](OC)CC(OC2OC(CO)C(O)C(O)C2O)/C(=C\C#N)[C@@H]1O (stereo partly shown) — higher, 25.1%
- O=C(O)C(=O)O.O=C(c1ccco1)N1CCN(Cc2cccnc2)CC1 — higher, 0.76%
- O=C1c2ccccc2C(=O)N1OCCOCCOCCBr — lower, -7.05%
- COc1ccc(OC)c(CN2CCN(CCc3ccccc3)C(CCO)C2)c1 (stereo not shown) — lower, -60.6%
- COc1cccc(CNC(=O)CCNC(=O)C2CCN(S(=O)(=O)c3ccccc3)CC2)c1 — lower, -31.1%
- Cc1ccc(OCC(=O)c2cc(C)n(CC(F)(F)F)c2C)c([N+](=O)[O-])n1 — higher, 13.1%
- COc1ccc(NC(=O)CSc2nnc3ccc(-c4ccccn4)nn23)c(OC)c1 — higher, 7.47%
- CCOC(=O)C1=C(CSc2nc3ccccc3s2)NC(=O)NC1c1cccc([N+](=O)[O-])c1 (stereo not shown) — higher, 5.64%
- CC(C)NC(=S)NNC(=O)C12CC3CC(CC(C3)C1)C2 — lower, -8.78%
- CC(C)N(C(=O)N1CCC(c2nc(-c3ccncc3)no2)CC1)C(C)C — lower, -15.3%
- CC(=O)Nc1cc(NC(C)=O)cc(-c2nc3ccccc3[nH]2)c1 — higher, 3.84%
- CCOc1ccccc1NC(=O)/C(C#N)=C/c1c(C)nn(-c2ccc(F)cc2)c1Cl — higher, 4.46%
- COc1ccc(C(=O)NC2CCN(C(=O)Nc3ccccc3Cl)CC2)cc1 — higher, 11.2%
- COC(=O)C1=NNC2(c3ccc(C)cc3)C(=O)N(c3cccc(C)c3C)C(=O)C12 (stereo not shown) — higher, -0.695%
- COC(=O)[C@H](Cc1ccccc1)NC(=O)[C@@]1(C)C[C@@H]1[C@@H](NC(=O)OCc1ccccc1)c1ccccc1 — lower, -46.7%
- COc1ccc(Nc2nnc(SC(C(=O)Nc3ccc(OC)c(Cl)c3)c3ccccc3)s2)cc1 (stereo not shown) — higher, 20.2%
- CN(C(=S)NC1CCCCC1)C1(c2ccccc2Cl)CCCCC1=O (stereo not shown) — higher, 2.15%
- Cn1c(=O)c2c(SCC(=O)c3ccccc3)nc(C3CC3)nc2n(C)c1=O — higher, 8.36%
- COc1ccc(/C=C2\SC(=O)N(CC(=O)NNC(=O)c3ccccc3O)C2=O)cc1OC — lower, -7.98%
- CCN(CC)S(=O)(=O)c1ccc(C(=O)NCc2cccs2)cc1 — lower, -20.7%
- Nc1cc(N)nc(SCc2cc(=O)oc3cc4c(cc23)CCC4)n1 — higher, -2.97%
- COC(=O)COc1cccc(NC(=O)c2cccc(C)c2)c1 — higher, -0.144%
- CCCCOc1ccc(CC(=O)NO)cc1 — higher, 15.8%
- Cc1ccc(-n2c(SCC(=O)Nc3cccc(S(=O)(=O)NC4=NCCCCC4)c3)nc3ccccc3c2=O)cc1C — higher, 3.17%
- O=P(O)(O)Oc1ccccc1P(=O)(c1ccccc1)c1ccccc1 — higher, 13.4%
- CCN1CCN(C(c2cccs2)C(C)NC(=O)c2ccccc2F)CC1 (stereo not shown) — lower, -4.23%
- CCNc1nc(NC(C)C)nc(SCCOc2ccc(C)cc2)n1 — lower, -4.78%
- CC1CCCCN1C(=O)/C=C/c1ccccc1[N+](=O)[O-] (stereo not shown) — lower, -3.59%
- CCn1c(SC(C)C(=O)Nc2ccc(N3CCOCC3)cc2)nnc1-c1ccco1 (stereo not shown) — lower, -6.42%
- Cc1ccc(NC(=O)CS(=O)CC(=O)N(CC(=O)NC2CCCC2)c2ccc3c(c2)OCCO3)cc1 (stereo not shown) — higher, 18%
- Cc1ccsc1/C=N/N1CCN(C2c3ccccc3-c3ccccc32)CC1 — higher, 18.1%
- CCOc1ccc(OCC(=O)Nc2ccccc2N2CCCC2)cc1 — lower, -13.5%
- Cc1cc(CNC(=O)Cn2nc(C)c([N+](=O)[O-])c2C)c2ccccc2n1 — higher, 1.76%
- Cc1nn(CCC(=O)NCc2ccc(N(C)C)cc2)c(=O)c2nn(-c3ccccc3)c(C)c12 — higher, 3%
- COc1ccc(-c2nn(-c3ccccc3)cc2/C=C/C(=O)OCC(=O)Nc2ccccc2C#N)cc1 — higher, 2.21%
- COC(=O)Cc1csc(Nc2ccc(F)c(Cl)c2)n1 — higher, -3.05%
- CCCc1nc2ccc(N)cc2c(=O)n1Cc1ccccc1Cl — lower, -14.7%
- COc1ccc(-n2nc3c(N4CCC(C(=O)NCc5ccccc5C)CC4)nnc(C)c3c2C)cc1 — lower, -20.6%
- CC(=O)c1ccccc1NS(C)(=O)=O — higher, 8.19%
- O=C(Nc1ccc(C(=O)N2CCC(O)(c3ccc(Cl)c(C(F)(F)F)c3)CC2)cc1)c1ccc(Br)o1 — higher, 8.21%
- O=C(Nc1nnc(C2CCCO2)s1)c1ccc(Br)cc1 (stereo not shown) — lower, -5.9%
- CCCCCOC(=O)C1[C@H]2C(=O)N(c3ccccc3CC)C[C@]23C=C[C@H]1O3 (stereo partly shown) — higher, 1.26%
- FC(F)(F)Oc1ccc(NC(=S)NCc2ccccc2)cc1 — higher, 4.62%
- CCc1nc(NC(=O)NS(=O)(=O)c2ccccc2C(=O)OC)nc(OC)n1 — higher, 32.3%
- CCOC(=O)c1c(C)oc2ccc(OCc3cc(C(=O)OC)oc3C)cc12 — higher, 2.78%
- COc1ccc(-c2nc(C#N)c(NCCCn3ccnc3)o2)cc1OC — higher, -1.58%
- COc1ccccc1/C=C/C(=O)OCC(=O)Nc1ccc2c(c1)OCCO2 — higher, 1.23%
- COC(=O)c1ccc(C(NC(=O)OCc2ccccc2)/C(C)=C/[C@@H](C)C(=O)NCc2ccc(OC)c(OC)c2)cc1 (stereo partly shown) — lower, -6.64%
- O=C(Nc1ccccc1)N1CCC(=S)Nc2ccccc21 — higher, -0.471%
- COC(=O)c1cc2occc2n1CC(=O)Nc1ccc(C)cc1C — higher, 14.1%
- COc1ccc(CN2CCN(C(=O)C3CCC(CNS(=O)(=O)c4ccccc4)CC3)CC2)c(OC)c1OC (stereo not shown) — lower, -40.6%
- O=C(C1CCN(c2nnc(-n3cccc3)s2)CC1)N1CCc2ccccc2C1 — lower, -60.3%
- CC(C)(C)NC(=O)C1CCN(S(=O)(=O)c2ccc(Br)cc2)CC1 — higher, 2.91%
- CNC(=O)CN(c1ccc(OC)cc1)S(=O)(=O)c1ccc(F)cc1 — higher, -1.59%
- CCOC(=O)c1ccc(NC(=O)C2CC(=O)N=C(N)S2)cc1 (stereo not shown) — higher, 9.4%
- CCCCC(=O)Nc1nnc(SCC(=O)NCC2CCCO2)s1 (stereo not shown) — lower, -24.8%
- O=C(Nc1nccs1)c1ccc(COc2c(F)c(F)cc(F)c2F)cc1 — higher, 20%
- O=C(c1cccs1)N1CCC2(O)CCCCC2C1c1ccc(F)cc1 (stereo not shown) — higher, 1.06%
- NCCS(=O)(=O)O — higher, 37.3%
- Cc1ccc(S(=O)(=O)N(C)C)cc1NC(=O)COC(=O)CN1C(=O)c2ccccc2C1=O — higher, 1.85%
- Cc1csc(NC(=O)CCn2c(=O)oc3ccc(Cl)cc32)n1 — higher, 2.72%
- O=C(O)CCCNS(=O)(=O)/C=C/c1ccccc1 — higher, 13.2%
- Cc1cc(NC(=O)CSc2nccn2-c2ccc([N+](=O)[O-])cc2)no1 — lower, -4.72%
- COC(=O)c1sccc1NC(=S)N1CCCCC1C (stereo not shown) — lower, -25.6%
- O=C(O)c1cc(-c2ccc3c(c2)OCO3)nc2ccccc12 — higher, 2.33%
- CN(C(=O)c1ccccc1C(=O)OCC(=O)Nc1cccc(Br)c1)c1ccccc1 — lower, -6.15%
- CCC(C(=O)N1CCN(c2ccccn2)CC1)n1nc(C)n2c(cc3occc32)c1=O (stereo not shown) — lower, -5.95%
- OC1CCN(C(=S)NCCc2ccccc2)CC1 — higher, -0.627%
- CCCN(CC(=O)Nc1ccccc1OC)C(=O)CSc1ccc(Br)cc1C — lower, -16.1%
- O=C(NC(=S)N1CCN(C/C=C/c2ccccc2)CC1)c1ccco1 — lower, -35%
- CC(C)(O[C@@H]1O[C@H](CO)[C@@H](O)[C@H](O)[C@H]1O)[C@H]1Cc2cc3ccc(=O)oc3cc2O1 — higher, 13.6%
- CCOC(=O)CC(NC(=O)Cn1nnc(-c2ccccc2F)n1)c1ccc(OC)cc1 (stereo not shown) — lower, -4.07%
- O=C(Cc1csc(Nc2nc(=S)[nH]c3ccccc23)n1)NCc1ccc(Cl)cc1 — higher, -2.07%
- CCN(CC)S(=O)(=O)c1ccc(N2CCOCC2)c(NC(=O)C(C)Oc2ccc(F)cc2)c1 (stereo not shown) — higher, 3.94%
- Cc1ccc(CN2CCN(Cc3ccncc3)CC2CCO)o1 (stereo not shown) — lower, -8.3%
- COc1ccccc1NS(=O)(=O)c1ccc(Cl)c(NC(=O)CN2C(=O)c3ccccc3C2=O)c1 — lower, -44.4%
- O=C(CCC1CCCN(C(=O)c2ccccc2Cl)C1)N1CCN(c2ccccn2)CC1 (stereo not shown) — lower, -10.7%
- CC1CCN(C(=O)CC#N)CC1 — higher, 14.5%
- COc1cccc(CNC(=O)COc2cccc(-n3cnnn3)c2)c1 — lower, -18.9%
- CCOC(=O)N1CCN(c2ccc(N3C(=O)CCCC3=O)cc2[N+](=O)[O-])CC1 — higher, 40.8%
- NC(=O)[C@@H]1CCCCNc2c(I)cc([N+](=O)[O-])cc2C(=O)N[C@@H](CCC(=O)O)C(=O)N[C@@H](CO)C(=O)N1 — higher, -1.35%
